#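 Growth conditions: 96-well plates. Treatment: test compound, 48 hours, 5 concentrations. Analysis: linear interpolation between bracketing concentrations; unreached endpoints set to highest concentration. GI50: concentration for 50% inhibition of growth.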 Not every entry of the source has a single result; some have several. The other results are left out here. There may be further records. For some of these results: The tests behind the records often covered other concentration ranges, which the source does not state; a value can be the end of its range. For some of these results: Values given together are repeats (runs, samples, wells, individuals or studies). Records carry a tag for their origin. Letters hold for one entry only.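 At the TGI there is no net growth.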
# How the values were obtained:
# Test in all cases: inhibition of tumour cell growth, NCI panel, 48 h
# MDA-MB-231 breast = test system: MDA-MB-231 breast
# MDA-MB-435 = test system: MDA-MB-435
# MALME-3M melanoma = test system: MALME-3M melanoma
# OVCAR-8 ovarian = test system: OVCAR-8 ovarian
# COLO 205 colon = test system: COLO 205 colon
# SN12C renal = test system: SN12C renal
# A498 renal = test system: A498 renal
# RXF 393 renal = test system: RXF 393 renal
# LOX IMVI melanoma = test system: LOX IMVI melanoma
# U251 CNS = test system: U251 CNS
# KM12 colon = test system: KM12 colon
# HCT-116 colon = test system: HCT-116 colon
# MDA-N = test system: MDA-N
# SR leukemia = test system: SR leukemia
# UACC-257 melanoma = test system: UACC-257 melanoma
# NCI/ADR-RES ovarian = test system: NCI/ADR-RES ovarian
# SF-295 CNS = test system: SF-295 CNS
# K-562 leukemia = test system: K-562 leukemia
# HCT-15 colon = test system: HCT-15 colon
# HCC-2998 colon = test system: HCC-2998 colon
# CAKI-1 renal = test system: CAKI-1 renal
# OVCAR-4 ovarian = test system: OVCAR-4 ovarian
# SNB-75 CNS = test system: SNB-75 CNS
# UO-31 renal = test system: UO-31 renal
# NCI-H522 lung = test system: NCI-H522 lung
# CCRF-CEM leukemia = test system: CCRF-CEM leukemia
# SK-MEL-28 melanoma = test system: SK-MEL-28 melanoma
# SK-MEL-5 melanoma = test system: SK-MEL-5 melanoma
# OVCAR-5 ovarian = test system: OVCAR-5 ovarian
# OVCAR-3 ovarian = test system: OVCAR-3 ovarian
# NCI-H226 lung = test system: NCI-H226 lung
# SK-MEL-2 melanoma = test system: SK-MEL-2 melanoma
# NCI-H23 lung = test system: NCI-H23 lung
# UACC-62 melanoma = test system: UACC-62 melanoma
# HL-60(TB) leukemia = test system: HL-60(TB) leukemia
# MCF7 breast = test system: MCF7 breast
# T-47D breast = test system: T-47D breast
# RPMI-8226 leukemia = test system: RPMI-8226 leukemia
structure (smiles),measurement,setting,value
C=C1C(C(O)C[C@H](C)C2O[C@@]3(CCCCO3)CCC2C)O[C@@H]2CCC3(CCC(/C=C/[C@@H](C)C4CC(C)=CC5(O4)O[C@H](C[C@](C)(O)C(=O)O)CCC5O)O3)OC2[C@@H]1O (some centres not stated),TGI,MDA-MB-231 breast,140 nM and 10.1 nM
same,TGI,MDA-MB-435,50.4 nM and 2.07 nM
same,TGI,MALME-3M melanoma,36.8 nM and 2.41 nM
same,TGI,OVCAR-8 ovarian,201 nM and 19.9 nM
same,TGI,COLO 205 colon,143 nM and 10.1 nM
same,TGI,SN12C renal,> 1 µM and 65.9 nM
same,TGI,A498 renal,151 nM and 13.8 nM
same,TGI,RXF 393 renal,56.8 nM and 3.8 nM
same,TGI,LOX IMVI melanoma,> 1 µM and 7.98 nM
same,TGI,U251 CNS,> 1 µM and 3.85 nM
same,TGI,KM12 colon,105 nM and 9.6 nM
same,TGI,HCT-116 colon,179 nM and 16.5 nM
same,TGI,MDA-N,130 nM and 4.31 nM
same,TGI,SR leukemia,> 1 µM and 36.3 nM
COC(=O)C12OCC34C(CC5C(C)=C(O)C(=O)CC5(C)C3C(O)C1O)OC(=O)C(OC(=O)C=C(C)C)C24 (configuration not stated),TGI,UACC-257 melanoma,543 nM and > 500 µM
same,TGI,MALME-3M melanoma,291 nM and > 500 µM
same,TGI,OVCAR-8 ovarian,552 nM and > 500 µM
same,TGI,NCI/ADR-RES ovarian,22.9 µM and > 500 µM
same,TGI,SF-295 CNS,929 nM and > 500 µM
same,TGI,K-562 leukemia,236 nM and > 500 µM
same,TGI,SN12C renal,780 nM and > 500 µM
same,TGI,HCT-15 colon,2.12 µM and > 500 µM
same,TGI,HCC-2998 colon,< 215 nM and > 500 µM
same,TGI,CAKI-1 renal,2.71 µM and > 500 µM
same,TGI,OVCAR-4 ovarian,1.82 µM and > 500 µM
same,TGI,SNB-75 CNS,22.3 nM and 493 µM
same,TGI,RXF 393 renal,1.08 µM and > 500 µM
same,TGI,UO-31 renal,2.31 µM and > 500 µM
same,TGI,NCI-H522 lung,655 nM and > 500 µM
same,TGI,CCRF-CEM leukemia,12.3 nM and > 500 µM
same,TGI,SK-MEL-28 melanoma,4.98 µM and > 500 µM
same,TGI,SK-MEL-5 melanoma,260 nM and > 479 µM
same,TGI,OVCAR-5 ovarian,922 nM and > 500 µM
same,TGI,HCT-116 colon,318 nM and > 500 µM
same,GI50,OVCAR-3 ovarian,< 215 nM and > 500 µM
same,TGI,NCI-H226 lung,426 nM and > 500 µM
same,TGI,SK-MEL-2 melanoma,413 nM and > 500 µM
same,TGI,NCI-H23 lung,434 nM and > 500 µM
same,TGI,UACC-62 melanoma,331 nM and > 500 µM
CC(C)S(=O)(=O)ON1C(=O)c2ccc(N(C)C)cc2C1=O,TGI,HL-60(TB) leukemia,1.45 µM and 19.7 µM
C/C(=C\COc1ccc2ccc(=O)oc2c1)C1=CC(=O)C(C)(C)O1,TGI,OVCAR-8 ovarian,4.91 µM and 50.4 µM
same,TGI,K-562 leukemia,5.25 µM and 77.7 µM
NC1(c2ccc(-c3nc4ccn5c(=O)[nH]nc5c4cc3-c3ccccc3)cc2)CCC1,GI50,MALME-3M melanoma,"222 nM [sample A, mean of 2 tests] and 3.6 µM [sample B, 1 test] and 11.6 µM [sample C, mean of 2 tests]"
same,GI50,MCF7 breast,"26.6 nM [sample A, mean of 3 tests] and 181 nM [sample B, mean of 2 tests] and 485 nM [sample C, mean of 2 tests]"
same,TGI,T-47D breast,"4.6 µM [sample A, mean of 2 tests] and 243 nM [sample B, 1 test] and 17.7 µM [sample C, mean of 2 tests]"
O=C1C=C2C(=CCOC2O)O1 (configuration not stated),TGI,RPMI-8226 leukemia,901 nM [sample A] and 15.1 µM [sample B]
same,GI50,HL-60(TB) leukemia,"275 nM [sample A, mean of 5 tests] and 3.81 µM [sample B, 1 test]"
same,TGI,HL-60(TB) leukemia,"912 nM [sample A, mean of 5 tests] and 10.3 µM [sample B, 1 test]"
same,GI50,MCF7 breast,"221 nM [sample A, mean of 3 tests] and 2.37 µM [sample B, 1 test]"
same,TGI,HCC-2998 colon,2.2 µM [sample A] and 24.9 µM [sample B]
same,GI50,A498 renal,"233 nM [sample A, mean of 2 tests] and 10.4 µM [sample B, 1 test]"
same,TGI,A498 renal,"428 nM [sample A, mean of 2 tests] and 23.3 µM [sample B, 1 test]"

# Reference: PubChem BioAssay (NCI)
